Measured values taken from the RNAGym collection of RNA variant scans (doi:10.7554/elife.90254).
Read counts are not given, so values of variants with three or more changes are uncertain.

B1: LINE1-mini (parent)
chain: GGCAGAGCUCAACACAGCGUGGCAAAGUGGCUGUGGCUAGACUGCC

Variants of: B1
Assay: self-cleavage, relative activity (ratio to wild type); higher = more cleavage; in vitro, sequencing; the parent is a self-cleaving ribozyme

Row | Variant | self-cleavage
1 | C3G G5A A11U A24U G40U | 0.08
2 | A25U G30A U38A | 0.71
3 | A16C G21A C23A | 0.06
4 | G1C G2A G5U A25U C37A | 0.18
5 | G1C U20A U38G | 0.02
6 | A11G U28C U43C | 0.01
7 | G7A G17A A25U A26C A39G G44C | 0.05
8 | C13A U20C G21U G44A | 0.05
9 | G17C G27C A39U | 0.51
10 | C13A A14U G22A C23G G29A | 0.09
11 | C3A A4C C10U G33A G35A C37U | 0.05
12 | C3A C8A A16U G17A G40C | 0.05
13 | G19A G22U A39G | 0.14
14 | A16G G17A G33C | 0.01
15 | C8U C10G A14U | 0.05
16 | C13A C15G G17C U20C C42A | 0.01
17 | G17U A24U A26G | 0.03
18 | G17C G22C G33C | 0.04
19 | A4G C10A G29A G35C C42U | 0.02
20 | G1U C3G C18U | 0.03
21 | C3U U9G G36A A39G U43G C45U | 2.12

Row | Variant | self-cleavage
22 | G19A U20G C37A | 0.02
23 | C3A G17U G22U G27C C46G | 0.21
24 | C10A G33A G40A | 0.03
25 | G22U C45A C46A | 0.5
26 | G7U C8A G17A | 0.48
27 | C15A A25G G27A | 0.12
28 | C8U C23U G35C A41U | 0.62
29 | C10U A14U U34A A39U G40U C42A | 0
30 | C8A A11C A12C C18G | 0
31 | C10A A11U U28G C31A G33A | 0
32 | A4U C15G G36C G44C C46U | 0
33 | C3U C13G C37U G40C | 0.14
34 | U9G G19U C23A A26C | 0.06
35 | A11G G22U U34C G35C C46G | 0.01
36 | G2C A4U G5U G27A A41C | 0.1
37 | C3G C10U A25G A39G C45G | 0.03
38 | G1A C15U U32G C37U | 0.1
39 | C3G A4C A6G | 0.07
40 | C31A U32C C42A | 0.06
41 | U20C A25C G33C | 0.04
42 | A6U C10A C13G G33A C37A U38C G40C U43C G44A | 0.01

Row | Variant | self-cleavage
43 | C10G G22A A24G C37G G44U | 0.01
44 | A25U U28G C42A | 0.01
45 | C3G C15G G36A U38G C46A | 0.04
46 | A14U C15U A26G U43A | 0.07
47 | C13A A16G U32G | 0.2
48 | A12U G17U G19A G21U G33A | 0.09
49 | A16U C31G G35U | 0.02
50 | C3G U9A A26G G30A G44U | 0.16
51 | C15U U38A C42U G44C | 0.27
52 | C3A G7C C23U G44A | 0.04
53 | C8U G19A G36A C46U | 0.83
54 | G1C U28G G36C C46U | 0
55 | C3G C8A C10A G17C | 0.02
56 | G22A A39U C46G | 0.63
57 | A24U U38G C42A | 0.03
58 | G7A G30C C37A A39C | 0.03
59 | A16G U28C G29U U32G | 0
60 | C18G G22U A25C G29A G44A C45A | 0.1
61 | C10U G36U U38G | 0.01
62 | A39U A41U C46U | 0.33
63 | C23U G27U U34A G35C G36A | 0.27

Row | Variant | self-cleavage
64 | C10A G21U A24G | 0.03
65 | A4C G5U C46A | 0.07
66 | G7C G21U U32A G40A | 0.12
67 | G1C G17C G21A C23G C45U | 0.11
68 | U9C G21A U38G C45G | 0.01
69 | C8A C18G G44C | 0.08
70 | C8G C13G A41C C42A | 0.12
71 | A6G G19A G40U | 0.26
72 | G22A A25C C37U U43A | 0.15
73 | G7U C13A G17U | 0.02
74 | G5A C8G A14G G17U | 0.06
75 | A11U A16G U32A G35A A41U | 0.02
76 | C13U C23U G27C U34G C45G C46U | 0.02
77 | G5U A39C C46U | 0.05
78 | G22C G27U C45U | 0.4
79 | C10G A12C U32A G33C U38G | 0
80 | A12C C13A A16U U34C | 0.11
81 | G22U C23G G36A | 0.37
82 | C10A C13U A16G | 0.01
83 | A11C G35U C45A | 0.01
84 | A6U C8A C15U A41C | 0.52
